Experimental data taken from PubChem BioAssay (Tox21).
Values joined by “and” are separate entries in the source; they are usually repeats but may differ in a detail not shown here. Equal entries are not always repeated. The shares of active, inactive and inconclusive entries below differ from those in the screen. For part of these data: Where the call is inconclusive, the potency comes from a doubtful curve fit. Where a structure was tested more than once in an assay, its records may differ in their call. Active and inactive are the calls of the source. Unless noted, the call rests on the fitted dose curve; in most records, active means well fitted curve in the direction sought with a large enough effect in the repeat runs; inconclusive means weak or mixed curves; inactive means no such curve, though single readings can be large; an effect the other way counts as inactive or inconclusive.

Columns and labels:
[1] = qHTS assay for identifying genotoxic compounds that show differential cytotoxicity against isogenic chicken DT40 cell lines with known DNA damage response pathways - wild type cell line (AID 743012); settings: DT40 wild type chicken cells viability, CellTiter-Glo, 40 h; activity change, negative = cytotoxicity: at 68.4 µM (top of the series) unless noted; further: nearly all actives have a fitted effect of over 60% in size
Summary of the method: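 Viability of DNA repair-proficient chicken DT40 cells was assessed by CellTiter-Glo luminescence following 40 h compound exposure at 37 C/5% CO2.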

[2] = qHTS assay for identifying genotoxic compounds that show differential cytotoxicity against isogenic chicken DT40 cell lines with known DNA damage response pathways - Rev3 mutant cell line (AID 743014); settings: chicken DT40 Rev3-/- viability, CellTiter-Glo, 40 h; activity, negative = cytotoxicity: at 68.4 µM (top of the series) unless noted; further: nearly all actives have a fitted effect of over 55% in size
[3] = qHTS assay to identify small molecule antagonists of the androgen receptor (AR) signaling pathway - cell viability counter screen (AID 743033; further: nearly all actives have a fitted effect of over 45% in size; on activity change, negative = cytotoxicity: on the % scale 0 is the no-effect control and ±100 the full control effect); settings: AR-bla HEK293 viability, CellTiter-Glo luminescence, 16 h; activity change, negative = cytotoxicity: at 58.5 µM (top of the series)
[4] = biological target: Androgen receptor (Homo sapiens) (UniProt P10275); experiment: qHTS assay to identify small molecule antagonists of the androgen receptor (AR) signaling pathway (AID 743035; active means well fitted inhibition curve with a large enough effect in the signal ratio in the repeat runs, not every such curve was filed as active; inconclusive means weak or mixed curves, or effect the other way; inactive means no such curve, though single readings can be large or run the other way; the % refers to the signal ratio); settings: HEK293 AR-UAS-bla, R1881-stimulated, beta-lactamase FRET, 16 h; activity change, negative = inhibition: at 58.5 µM (top of the series) unless noted
Sequence of UniProt P10275 (P10275 whole entry, looked up): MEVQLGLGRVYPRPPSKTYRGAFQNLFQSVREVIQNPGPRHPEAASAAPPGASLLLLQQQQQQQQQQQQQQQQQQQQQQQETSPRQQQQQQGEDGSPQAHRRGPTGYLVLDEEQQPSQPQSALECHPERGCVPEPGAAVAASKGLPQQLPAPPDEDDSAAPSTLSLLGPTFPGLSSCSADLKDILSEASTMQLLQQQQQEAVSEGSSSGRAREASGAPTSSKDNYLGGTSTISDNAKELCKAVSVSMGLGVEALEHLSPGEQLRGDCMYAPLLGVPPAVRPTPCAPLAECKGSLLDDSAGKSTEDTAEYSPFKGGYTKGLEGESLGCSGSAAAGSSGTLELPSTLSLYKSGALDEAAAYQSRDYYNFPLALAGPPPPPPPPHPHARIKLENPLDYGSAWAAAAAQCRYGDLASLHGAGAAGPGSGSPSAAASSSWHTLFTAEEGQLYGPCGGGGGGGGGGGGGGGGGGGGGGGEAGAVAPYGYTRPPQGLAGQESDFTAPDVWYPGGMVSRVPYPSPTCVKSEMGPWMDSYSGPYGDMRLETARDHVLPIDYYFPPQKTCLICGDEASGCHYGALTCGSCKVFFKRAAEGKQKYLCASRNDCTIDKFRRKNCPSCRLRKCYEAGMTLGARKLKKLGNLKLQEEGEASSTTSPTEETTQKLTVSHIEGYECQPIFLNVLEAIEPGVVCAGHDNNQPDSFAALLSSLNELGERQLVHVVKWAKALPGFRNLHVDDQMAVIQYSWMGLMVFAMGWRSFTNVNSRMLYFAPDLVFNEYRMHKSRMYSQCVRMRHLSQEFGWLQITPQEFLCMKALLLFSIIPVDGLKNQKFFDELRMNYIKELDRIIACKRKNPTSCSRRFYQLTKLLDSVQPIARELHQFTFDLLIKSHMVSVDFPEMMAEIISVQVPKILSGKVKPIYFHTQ
Summary of the method: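 Reporter HEK293 cells were exposed to compounds and R1881 overnight (16 h, 37C); beta-lactamase activity was then quantified by FRET fluorescence.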

[5] = biological target: Androgen receptor (Homo sapiens) (UniProt P10275); experiment: qHTS assay to identify small molecule agonists of the androgen receptor (AR) signaling pathway (AID 743036; active means well fitted activation curve with a large enough effect in the signal ratio in the repeat runs, with a control signal flat, not every such curve was filed as active; inconclusive means weak or mixed curves, or effect the other way; inactive means no such curve, though single readings can be large or run the other way; the % refers to the signal ratio); settings: HEK293 AR-UAS-bla GripTite, beta-lactamase FRET ratio, 16 h; activation: at 62.4 µM (top of the series) unless noted
Summary of the method: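 Quantitative HTS of the Tox21 10K library in HEK293 cells bearing a stably integrated UAS-controlled beta-lactamase reporter. Compound exposure lasted 16 h at 37C. Reporter activity was detected by FRET substrate fluorescence after 2 h at room temperature.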

[6] = qHTS assay to identify small molecule antagonists of the androgen receptor (AR) signaling pathway using the MDA cell line - cell viability counter screen (AID 743041; further: nearly all actives have a fitted effect of over 45% in size); settings: MDA-kb2 viability, CellTiter-Fluor, 16 h, cells co-treated with R1881 androgen agonist; viability change, negative = cytotoxic: at 70.3 µM (top of the series) unless noted
Summary of the method: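 Using the breast carcinoma line MDA-kb2 AR-luc, test chemicals were co-incubated with R1881 for 16 h; CellTiter-Fluor reagent, added at 15.5 h, provided a fluorescence measure of live cells.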

[7] = biological target: Androgen receptor (Homo sapiens) (UniProt P10275); experiment: qHTS assay to identify small molecule antagonists of the androgen receptor (AR) signaling pathway using the MDA cell line (AID 743042; further: nearly all actives have a fitted effect of over 55% in size)
Summary of the method: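 Antagonist mode: compounds plus R1881 agonist added to MDA-kb2 AR-luc cells, incubated 16 h at 37C. Luciferase reporter luminescence quantified, with multiplexed CellTiter-Fluor readout for cell viability.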

[8] = qHTS assay to identify small molecule antagonists of the thyroid receptor (TR) signaling pathway - cell viability counter screen (AID 743064); settings: GH3.TRE-Luc viability, CellTiter-Fluor, 24 h; activity change, negative = cytotoxic: at 70.3 µM (top of the series) unless noted; further: nearly all actives have a fitted effect of over 50% in size
Summary of the method: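 Rat GH3 pituitary tumor cells stably expressing two TR response elements driving luciferase were plated, rested 4 h, then dosed with library compounds and T3 (1 nM final). After 23.5 h at 37 °C, CellTiter-Fluor was added for 30 min and fluorescence recorded.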

[9] = qHTS assay to identify small molecule antagonists of the thyroid receptor (TR) signaling pathway (AID 743065); further: nearly all actives have a fitted effect of over 55% in size
Summary of the method: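 Antagonism measured as loss of luciferase signal in GH3 cells stably carrying a TRE-luciferase reporter, co-treated with compound and T3 (1 nM final) for 23.5 h at 37 C. Viability was read in the same well by CellTiter-Fluor.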

[10] = biological target: Estrogen receptor (Homo sapiens) (UniProt P03372); experiment: qHTS assay to identify small molecule antagonists of the estrogen receptor alpha (ER-alpha) signaling pathway (AID 743069; active means well fitted curve in the direction sought with a large enough effect in the signal ratio in the repeat runs, not every such curve was filed as active; inconclusive means weak or mixed curves, or effect the other way; inactive means no such curve, though single readings can be large or run the other way; the % refers to the signal ratio; on activity, negative = inhibition: on the % scale 0 is the no-effect control and ±100 the full control effect); settings: HEK293 ER-alpha-UAS-bla, beta-lactamase ratio, antagonist mode; activity, negative = inhibition: at 69.4 µM (top of the series) unless noted
Sequence of UniProt P03372 (P03372 whole entry, looked up): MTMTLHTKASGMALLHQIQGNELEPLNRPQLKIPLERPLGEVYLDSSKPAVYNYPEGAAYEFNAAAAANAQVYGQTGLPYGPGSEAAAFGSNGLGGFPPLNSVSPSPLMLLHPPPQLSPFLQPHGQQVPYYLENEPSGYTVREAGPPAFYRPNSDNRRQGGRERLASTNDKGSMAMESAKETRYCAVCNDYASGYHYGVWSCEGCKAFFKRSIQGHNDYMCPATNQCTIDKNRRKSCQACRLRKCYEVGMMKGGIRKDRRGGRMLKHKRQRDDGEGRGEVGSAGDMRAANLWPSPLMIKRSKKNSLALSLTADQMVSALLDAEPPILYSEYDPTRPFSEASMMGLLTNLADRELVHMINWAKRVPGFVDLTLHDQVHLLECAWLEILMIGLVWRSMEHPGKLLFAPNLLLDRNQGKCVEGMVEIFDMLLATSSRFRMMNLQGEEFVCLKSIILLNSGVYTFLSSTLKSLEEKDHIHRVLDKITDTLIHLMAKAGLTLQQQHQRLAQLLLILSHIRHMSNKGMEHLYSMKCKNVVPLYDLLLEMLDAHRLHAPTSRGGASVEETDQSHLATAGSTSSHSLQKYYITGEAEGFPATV
Summary of the method: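 Fluorescence intensity from a beta-lactamase FRET substrate served as the read-out. Cells: HEK293 with stably integrated ER-alpha-UAS-bla reporter. Agonist 17beta-estradiol was co-added with compounds; incubation 18 hr at 37C, substrate 2 hr at room temperature.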

[11] = biological target: Aromatase (Homo sapiens) (UniProt P11511); experiment: qHTS assay to identify aromatase inhibitors (AID 743083); further: nearly all actives have a fitted effect of over 55% in size
Sequence of UniProt P11511 (P11511 whole entry, looked up): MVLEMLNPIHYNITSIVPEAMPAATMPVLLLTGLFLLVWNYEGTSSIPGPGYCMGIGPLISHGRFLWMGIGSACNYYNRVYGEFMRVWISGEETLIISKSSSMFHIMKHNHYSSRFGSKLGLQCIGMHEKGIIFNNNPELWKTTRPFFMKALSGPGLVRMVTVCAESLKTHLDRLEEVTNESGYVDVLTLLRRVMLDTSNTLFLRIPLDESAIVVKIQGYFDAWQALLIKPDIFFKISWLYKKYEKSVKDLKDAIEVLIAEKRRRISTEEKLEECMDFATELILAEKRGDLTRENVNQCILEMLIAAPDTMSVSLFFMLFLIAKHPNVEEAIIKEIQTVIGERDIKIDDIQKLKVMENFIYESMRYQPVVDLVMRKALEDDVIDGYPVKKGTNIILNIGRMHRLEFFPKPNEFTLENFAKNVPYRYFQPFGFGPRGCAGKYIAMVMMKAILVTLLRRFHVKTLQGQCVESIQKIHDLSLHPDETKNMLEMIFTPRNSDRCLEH

[12] = qHTS assay to identify aromatase inhibitors - cell viability counter screen (AID 743084); settings: MCF-7 aro ERE viability, CellTiter-Fluor, 24 h; activity change, negative = cytotoxicity: at 70.3 µM (top of the series)
[13] = biological target: Estrogen receptor (Homo sapiens) (UniProt P03372); experiment: qHTS assay to identify small molecule agonists of the estrogen receptor alpha (ER-alpha) signaling pathway using the BG1 cell line (AID 743079); settings: BG1Luc4E2 cells, ERE-luciferase agonist, 22 h; activation: at 70.3 µM (top of the series) unless noted; further: nearly all actives have a fitted effect of over 20% in size; on activation: on the % scale 0 is the no-effect control and ±100 the full control effect
[14] = qHTS assay to identify small molecule antagonists of the estrogen receptor alpha (ER-alpha) signaling pathway using the BG1 cell line (AID 743080; calls by dose curve;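 further: BG1 cells stimulated with 17beta-estradiol alongside compound; nearly all actives have a fitted effect of over 25% in size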; on activity change, negative = inhibition: on the % scale 0 is the no-effect control and ±100 the full control effect); settings: BG1Luc4E2 ERE-luciferase antagonist mode, luminescence; activity change, negative = inhibition: at 70.3 µM (top of the series) unless noted
Summary of the method: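 Seeding, 24 h rest, compound transfer from DMSO, 17beta-estradiol addition, 21.5 h incubation, CellTiter-Fluor (30 min, 37 C), then ONE-Glo (30 min, room temperature): this sequence was run on BG1-Luc-4E2 reporter cells.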

[15] = qHTS assay for identifying genotoxic compounds that show differential cytotoxicity against isogenic chicken DT40 cell lines with known DNA damage response pathways - Rad54/Ku70 mutant cell line (AID 743015); settings: DT40 Rad54/Ku70 mutant viability, CellTiter-Glo, 40 h; activity change, negative = cytotoxicity: at 66.8 µM (top of the series); further: nearly all actives have a fitted effect of over 60% in size
[16] = qHTS assay to identify small molecule antagonists of the estrogen receptor alpha (ER-alpha) signaling pathway using the BG1 cell line - cell viability counter screen (AID 743081);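 further: compound given together with 17beta-estradiol as the ER stimulus; nearly all actives have a fitted effect of over 45% in size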
[17] = qHTS assay to identify small molecule antagonists of the estrogen receptor alpha (ER-alpha) signaling pathway - cell viability counter screen (AID 743074; calls by dose curve; further: nearly all actives have a fitted effect of over 45% in size)
[18] = biological target: Estrogen receptor (Homo sapiens) (UniProt P03372); experiment: qHTS assay to identify small molecule agonists of the estrogen receptor alpha (ER-alpha) signaling pathway (AID 743075; calls by dose curve)
Potency means the concentration at half of the fitted maximal effect; tags describe the fitted curve by direction and shape or compound fluorescence and quenching.

In the case of `CN(C)CC/C=C1\c2ccccc2Sc2ccc(Cl)cc21`, the Potency [1] is reported as active: 3.76 µM, the Potency [2] is reported as active: 16.8 µM and the Potency [3] is reported as inconclusive: 19 µM [cytotoxic, partial curve]. The Potency [4] was inconclusive: 26.8 µM [falling, single point], the Potency [5] was inconclusive: 2.39 µM [rising, partial curve, poor fit] and the Potency [6] was active: 27.8 µM. The Potency [7] was inconclusive: 29.8 µM [inhibitor, single point], the Potency [8] was active: 11.9 µM and the Potency [9] was active: 11.9 µM. For the same compound, the activity, negative = inhibition [10] was inconclusive: -21%, the Potency [11] was inconclusive: 21.1 µM [inhibitor, partial curve] and the Potency [12] was inconclusive: 23.7 µM [cytotoxic, partial curve].

In the case of `COc1cc(C)c(Cc2cnc(N)nc2N)cc1OC`, the Potency [1] is reported as active: 26.6 µM, the Potency [2] is reported as inconclusive: 29.8 µM [cytotoxic] and the Potency [3] is reported as “inactive”. For the same compound, the Potency [8] was inconclusive: 2.98 µM [rising, single point], the Potency [13] was “inactive” and the Potency [14] was “inactive”.

With `CNC[C@H](O)c1ccc(O)c(O)c1` the Potency [1] was inconclusive: 68.7 µM [cytotoxic, single point], the Potency [2] was inconclusive: 43.3 µM [cytotoxic, single point] and the Potency [15] was inconclusive: 33.5 µM [cytotoxic] and inconclusive: 68.7 µM [cytotoxic, single point]. For the same compound, the Potency [16] was “inactive”.

With `c1ccc(CN(CC2=NCCN2)c2ccccc2)cc1` the Potency [1] was active: 29.8 µM, the Potency [2] was inconclusive: 33.5 µM [cytotoxic] and the Potency [15] was inconclusive: 29.8 µM [cytotoxic, single point]. For the same compound, the Potency [10] was inconclusive: 0.0008 µM [inhibitor].

For `Cn1c([N+](=O)[O-])cnc1COC(N)=O`, the Potency [1] was “inactive”, the Potency [2] was “inactive and inconclusive: 6.86 µM [cytotoxic, full curve]” and the Potency [3] was inconclusive: 1.55 µM [cytotoxic, full curve, poor fit]. For the same compound, the Potency [8] was “inactive” and the Potency [10] was “inactive”.

With `CCCCC(CC)COCCCN` (stereo not drawn) the Potency [1] was inconclusive: 67.8 µM [cytotoxic, single point], the Potency [2] was active: 60.4 µM and the Potency [3] was inconclusive: 0.153 µM [cytotoxic, full curve, poor fit]. For the same compound, the Potency [8] was inconclusive: 24.1 µM [cytotoxic], the Potency [9] was inconclusive: 24.1 µM [inhibitor, full curve] and the Potency [13] was inconclusive: 60.4 nM [activator, full curve, poor fit].

In the case of `CCC(=O)c1c(O)cc(O)cc1O`, the Potency [1] is reported as “inactive”, the Potency [2] is reported as “inactive” and the Potency [3] is reported as inconclusive: 0.301 µM [cytotoxic, full curve, poor fit]. The Potency [5] was inconclusive: 19 µM [rising, partial curve, poor fit] and the Potency [17] was “inactive”.

In the case of `CCCCCCCCCCCCCCC(=O)O`, the Potency [1] is reported as inconclusive: 27.4 µM [cytotoxic, single point], the Potency [2] is reported as inconclusive: 27.4 µM [cytotoxic, single point] and the Potency [15] is reported as inconclusive: 27.4 µM [cytotoxic, full curve]. For the same compound, the Potency [10] was “inactive”, the Potency [18] was inconclusive: 49.1 µM [activator, partial curve, poor fit] and the Potency [13] was inconclusive: 61300 nM [activator, partial curve, poor fit].

In the case of `COc1cc(OC)c2ccc(=O)oc2c1`, the activity change, negative = cytotoxicity [1] is reported as inconclusive: -40.1% [cytotoxic], the Potency [2] is reported as inconclusive: 43.3 µM [cytotoxic, partial curve, poor fit] and the activity change, negative = inhibition [4] is reported as inconclusive: -33.7%. The activation [5] was inconclusive: 0.102%, the Potency [8] was inconclusive: 61.1 µM [rising, partial curve] and the Potency [9] was “inactive”. For the same compound, the Potency [16] was inconclusive: 38.6 µM [rising, partial curve].

With `Oc1c(Cl)cc(Cl)c(Cl)c1Cl` the Potency [1] was inconclusive: 77 µM [cytotoxic, single point], the Potency [2] was inconclusive: 67.1 µM [cytotoxic, single point] and inconclusive: 68.6 µM [cytotoxic, single point] and the Potency [3] was inconclusive: 53.8 µM [cytotoxic, single point] and inconclusive: 54.9 µM [cytotoxic, single point]. For the same compound, the Potency [8] was inconclusive: 59.8 µM [cytotoxic, single point] and inconclusive: 68.6 µM [cytotoxic, single point], the Potency [17] was active: 53.8 µM and inconclusive: 17.4 µM [cytotoxic, partial curve, poor fit] and the Potency [13] was inconclusive: 67.1 µM [inhibitor, single point] and inconclusive: 61.1 µM [inhibitor]. The Potency [14] was active: 68.6 µM and the Potency [11] was “inactive”.
